Experimental data from the supplement of paper PMC9151546.
Single values are uncertain, as repeats are few or missing.

Assays:
CHO-K1 [1] = experiment: micronucleus frequency (% of nucleated events); higher = more micronuclei (genotoxic)
CHO-K1 [2] = experiment: relative survival (nuclei to bead ratio vs DMSO control) (% of vehicle control); higher = more surviving cells
CHO-K1 [3] = experiment: hypodiploid nuclei frequency (% of nucleated events); higher = more hypodiploid events (aneugenic)
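For hypodiploid nuclei frequency (% of nucleated events) in this document: hypodiploid nuclei gated on a flow cytometer with 488 nm excitation after SYTOX Green staining, cultures at 37 °C, positive controls vinblastine without S9 and cyclophosphamide with S9.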
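For micronucleus frequency (% of nucleated events) in this document: cells lysed with nuclei stained by SYTOX Green, then micronucleus-gated events counted against nucleated events by flow cytometry with 488 nm excitation.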
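For relative survival (nuclei to bead ratio vs DMSO control) in this document: Lysed-cell nuclei stained with SYTOX Green and counted against counting beads by flow cytometry at 488 nm excitation, with vinblastine (no S9) and cyclophosphamide (plus S9) as positive controls.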

O=C(O)C(Cl)(Cl)Cl [Trichloroacetic acid]
Settings | hypodiploid nuclei frequency, CHO-K1 [3] [%] | micronucleus frequency, CHO-K1 [1] [%] | relative survival, CHO-K1 [2]
concentration: 4.5 (µM), S9 metabolic activation: with S9, exposure time: 3-4 hours | 0.22 | 1.22 | 96.7
concentration: 4.5 (µM), S9 metabolic activation: without S9, exposure time: 24 hours | 0.9 | 2.02 | 120
concentration: 5.63 (µM), S9 metabolic activation: with S9, exposure time: 3-4 hours | 0.14 | 1 | 94.3
concentration: 5.63 (µM), S9 metabolic activation: without S9, exposure time: 24 hours | 0.62 | 1.34 | 122
concentration: 7.04 (µM), S9 metabolic activation: with S9, exposure time: 3-4 hours | 0.14 | 1.46 | 82
concentration: 7.04 (µM), S9 metabolic activation: without S9, exposure time: 24 hours | 0.72 | 1.46 | 136
concentration: 8.8 (µM), S9 metabolic activation: with S9, exposure time: 3-4 hours | 0.14 | 1.14 | 96.2
concentration: 8.8 (µM), S9 metabolic activation: without S9, exposure time: 24 hours | 0.54 | 1.46 | 107
concentration: 11 (µM), S9 metabolic activation: with S9, exposure time: 3-4 hours | 0.08 | 1.14 | 114
concentration: 11 (µM), S9 metabolic activation: without S9, exposure time: 24 hours | 0.64 | 1.58 | 141
concentration: 13.7 (µM), S9 metabolic activation: with S9, exposure time: 3-4 hours | 0.2 | 0.96 | 83.9
concentration: 13.7 (µM), S9 metabolic activation: without S9, exposure time: 24 hours | 0.54 | 2.12 | 120
concentration: 17.2 (µM), S9 metabolic activation: with S9, exposure time: 3-4 hours | 0.26 | 1.38 | 101
concentration: 17.2 (µM), S9 metabolic activation: without S9, exposure time: 24 hours | 0.74 | 1.8 | 95.4
concentration: 21.5 (µM), S9 metabolic activation: with S9, exposure time: 3-4 hours | 0.14 | 1.14 | 108
concentration: 21.5 (µM), S9 metabolic activation: without S9, exposure time: 24 hours | 0.7 | 1.8 | 93.8
concentration: 26.8 (µM), S9 metabolic activation: with S9, exposure time: 3-4 hours | 0.08 | 1.18 | 65.9
concentration: 26.8 (µM), S9 metabolic activation: without S9, exposure time: 24 hours | 0.98 | 3.22 | 115
concentration: 33.6 (µM), S9 metabolic activation: with S9, exposure time: 3-4 hours | 0.16 | 0.88 | 83.9
concentration: 33.6 (µM), S9 metabolic activation: without S9, exposure time: 24 hours | 19.6 | 2.74 | 76.8
concentration: 41.9 (µM), S9 metabolic activation: with S9, exposure time: 3-4 hours | 0.14 | 0.86 | 78.9
concentration: 41.9 (µM), S9 metabolic activation: without S9, exposure time: 24 hours | 1.2 | 1.18 | 108
concentration: 52.4 (µM), S9 metabolic activation: with S9, exposure time: 3-4 hours | 0.24 | 1.28 | 82.2
concentration: 52.4 (µM), S9 metabolic activation: without S9, exposure time: 24 hours | 1.02 | 1.78 | 132
concentration: 65.5 (µM), S9 metabolic activation: with S9, exposure time: 3-4 hours | 0.14 | 0.86 | 86.2
concentration: 65.5 (µM), S9 metabolic activation: without S9, exposure time: 24 hours | 1.54 | 1.72 | 98.5
concentration: 81.9 (µM), S9 metabolic activation: with S9, exposure time: 3-4 hours | 0.24 | 1.34 | 96.2
concentration: 81.9 (µM), S9 metabolic activation: without S9, exposure time: 24 hours | 1.02 | 1.92 | 141
concentration: 102 (µM), S9 metabolic activation: with S9, exposure time: 3-4 hours | 0.3 | 1.02 | 94.5
concentration: 102 (µM), S9 metabolic activation: without S9, exposure time: 24 hours | 1.08 | 2.12 | 135
concentration: 128 (µM), S9 metabolic activation: with S9, exposure time: 3-4 hours | 0.16 | 0.94 | 99.8
concentration: 128 (µM), S9 metabolic activation: without S9, exposure time: 24 hours | 1.14 | 1.74 | 121
concentration: 160 (µM), S9 metabolic activation: with S9, exposure time: 3-4 hours | 0.22 | 1.06 | 87.6
concentration: 160 (µM), S9 metabolic activation: without S9, exposure time: 24 hours | 1.06 | 2.24 | 85.6
concentration: 200 (µM), S9 metabolic activation: with S9, exposure time: 3-4 hours | 0.26 | 1.98 | 123
concentration: 200 (µM), S9 metabolic activation: without S9, exposure time: 24 hours | 1.64 | 2.38 | 74.3

ClC(Cl)=C(c1ccc(Cl)cc1)c1ccc(Cl)cc1 [p,p'-DDE]
Settings | hypodiploid nuclei frequency, CHO-K1 [3] [%] | micronucleus frequency, CHO-K1 [1] [%] | relative survival, CHO-K1 [2]
concentration: 4.5 (µM), S9 metabolic activation: with S9, exposure time: 3-4 hours | 0.24 | 1.56 | 183
concentration: 4.5 (µM), S9 metabolic activation: without S9, exposure time: 24 hours | 0.54 | 1.32 | 97.5
concentration: 5.63 (µM), S9 metabolic activation: with S9, exposure time: 3-4 hours | 0.3 | 1.32 | 141
concentration: 5.63 (µM), S9 metabolic activation: without S9, exposure time: 24 hours | 0.48 | 1.18 | 128
concentration: 7.04 (µM), S9 metabolic activation: with S9, exposure time: 3-4 hours | 0.12 | 1.14 | 176
concentration: 7.04 (µM), S9 metabolic activation: without S9, exposure time: 24 hours | 0.7 | 1.32 | 111
concentration: 8.8 (µM), S9 metabolic activation: with S9, exposure time: 3-4 hours | 0.32 | 2.16 | 175
concentration: 8.8 (µM), S9 metabolic activation: without S9, exposure time: 24 hours | 0.74 | 1.84 | 104
concentration: 11 (µM), S9 metabolic activation: with S9, exposure time: 3-4 hours | 0.22 | 1.44 | 187
concentration: 11 (µM), S9 metabolic activation: without S9, exposure time: 24 hours | 0.74 | 2.26 | 117
concentration: 13.7 (µM), S9 metabolic activation: with S9, exposure time: 3-4 hours | 0.2 | 1.12 | 153
concentration: 13.7 (µM), S9 metabolic activation: without S9, exposure time: 24 hours | 0.54 | 2.2 | 140
concentration: 17.2 (µM), S9 metabolic activation: with S9, exposure time: 3-4 hours | 0.26 | 1.52 | 157
concentration: 17.2 (µM), S9 metabolic activation: without S9, exposure time: 24 hours | 0.94 | 2.38 | 97.9
concentration: 21.5 (µM), S9 metabolic activation: with S9, exposure time: 3-4 hours | 0.2 | 1.74 | 140
concentration: 21.5 (µM), S9 metabolic activation: without S9, exposure time: 24 hours | 0.56 | 1.5 | 106
concentration: 26.8 (µM), S9 metabolic activation: with S9, exposure time: 3-4 hours | 0.38 | 2.12 | 196
concentration: 26.8 (µM), S9 metabolic activation: without S9, exposure time: 24 hours | 1.1 | 1.94 | 80.8
concentration: 33.6 (µM), S9 metabolic activation: with S9, exposure time: 3-4 hours | 0.32 | 2 | 144
concentration: 33.6 (µM), S9 metabolic activation: without S9, exposure time: 24 hours | 1.02 | 1.6 | 110
concentration: 41.9 (µM), S9 metabolic activation: with S9, exposure time: 3-4 hours | 0.24 | 2.24 | 166
concentration: 41.9 (µM), S9 metabolic activation: without S9, exposure time: 24 hours | 1.16 | 2.12 | 104
concentration: 52.4 (µM), S9 metabolic activation: with S9, exposure time: 3-4 hours | 0.44 | 2.28 | 156
concentration: 52.4 (µM), S9 metabolic activation: without S9, exposure time: 24 hours | 1.06 | 1.82 | 105
concentration: 65.5 (µM), S9 metabolic activation: with S9, exposure time: 3-4 hours | 0.26 | 1.76 | 189
concentration: 65.5 (µM), S9 metabolic activation: without S9, exposure time: 24 hours | 0.9 | 2.38 | 93.2
concentration: 81.9 (µM), S9 metabolic activation: with S9, exposure time: 3-4 hours | 0.3 | 2.68 | 196
concentration: 81.9 (µM), S9 metabolic activation: without S9, exposure time: 24 hours | 1 | 3.02 | 76
concentration: 102 (µM), S9 metabolic activation: with S9, exposure time: 3-4 hours | 0.3 | 1.48 | 141
concentration: 102 (µM), S9 metabolic activation: without S9, exposure time: 24 hours | 1.4 | 2.74 | 77.4
concentration: 128 (µM), S9 metabolic activation: with S9, exposure time: 3-4 hours | 0.26 | 1.84 | 127
concentration: 128 (µM), S9 metabolic activation: without S9, exposure time: 24 hours | 1.3 | 1.98 | 64.3
concentration: 160 (µM), S9 metabolic activation: with S9, exposure time: 3-4 hours | 0.28 | 1.86 | 109
concentration: 160 (µM), S9 metabolic activation: without S9, exposure time: 24 hours | 1.24 | 2.24 | 61.1
concentration: 200 (µM), S9 metabolic activation: with S9, exposure time: 3-4 hours | 0.36 | 3.96 | 70.5
concentration: 200 (µM), S9 metabolic activation: without S9, exposure time: 24 hours | – | – | 12.1
